PubChem BioAssay AID686978 (National Center for Advancing Translational Sciences (NCATS), 2013)
Hit rate of the full screen: of about 420,000 compounds, about 64,000 (15%) were called active. The shares of active, inactive and inconclusive entries below differ from those in the screen. Calls follow the shape of the dose curve; as a rule, active = well fitted inhibition curve with a large enough effect; inconclusive = small, poorly fitted or top-dose-only effect; inactive = flat fitted curve, though single readings scatter. No potency is given beside an inconclusive call; the fits are too rough.

Assay: qHTS for Inhibitors of human tyrosyl-DNA phosphodiesterase 1 (TDP1): qHTS in cells in absence of CPT; also: nearly all actives have a fitted effect of over 55% in size
Details: DT40 Tdp1-/- hTDP1 cells, no CPT, ATP luminescence, 48 h; activity change, negative = growth inhibition: at 46.2 µM (top of the series) unless noted
In short: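 Chicken DT40 Tdp1-/- cells complemented with human TDP1, screened without camptothecin (DMSO vehicle only), 400 cells/well. Compounds pin-transferred, cells incubated at 37 °C for at least 48 hr. Growth read as ATP-dependent luminescence (CellTiter-Glo, 30 min at RT).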
% is scaled to controls: 0 for no effect and ±100 for the full control effect; potency is read from the fitted curve at half-maximal effect; tags tell the direction and shape of the fitted curve.

Question: With Cc1ccc(-c2nc3scc(CCNC(=O)c4cccc(Br)c4)n3n2)cc1 as the compound, how does the Potency read?
Answer: inconclusive [inhibitor, single point]

Question: Which Potency does the source give for S=c1[nH]c2cc(Cl)ccc2s1 here?
Answer: inactive

Question: Which Potency does the source give for COc1ccccc1C(=O)NNC(=O)C1CCCO1 (centres undefined) here?
Answer: inactive

Question: With CS(=O)(=O)c1ccc2nc(NC(=O)CS(=O)(=O)c3ccc(Cl)cc3)sc2c1 as the compound, how does the Potency read?
Answer: inconclusive [inhibitor, partial curve]

Question: With CC(C)n1ncc2c(C(=O)Nc3ccc(CC#N)cc3)cc(C3CC3)nc21 as the compound, how does the Potency read?
Answer: active: 13 µM

Question: With CCOC(=O)[C@]12CCC=C1N(Cc1ccccc1)C(=O)[C@H](CC(=O)NCCCN1CCCC1=O)C2 as the compound, how does the Potency read?
Answer: inactive

Question: With CCOC(=O)CNC(=O)Nc1cc(C(=O)NCc2cccc(F)c2)ccc1N1CCCC1 as the compound, how does the Potency read?
Answer: inactive

Question: For COc1ccc(NC2=CC(=S)NC(C)(C)C2)cc1, which Potency is on record?
Answer: inconclusive [inhibitor, single point]

Question: Which Potency does the source give for COc1cc(/C=C(\C#N)c2ccccn2)ccc1OCC(=O)Nc1cccc(C(F)(F)F)c1 here?
Answer: inactive

Question: Which Potency does the source give for O=C(NCC(c1cccnc1)N1CCc2ccccc21)c1ccccc1Br (centres undefined) here?
Answer: inconclusive [inhibitor, single point]

Question: With CCCCCc1ccc(C)cc1O as the compound, how does the Potency read?
Answer: inactive

Question: For CCOc1ccc(CCNC(=O)c2cccc(S(=O)(=O)N3CCCCC3)c2)cc1OCC, which Potency is on record?
Answer: active: 7.31 µM

Question: Which Potency does the source give for N/C(=N\OC(=O)C(c1ccccc1)c1ccccc1)c1ccncc1 here?
Answer: active: 29.1 µM

Question: Which Potency does the source give for CC(=O)c1ccc(NC(=O)c2ccc(CSc3ccccc3)o2)cc1 here?
Answer: inconclusive [inhibitor, single point]

Question: For COc1ccc(C2=Nc3ccccc3N(C(=O)c3ccncc3)C2C(=O)NC(C)(C)C)cc1 (centres undefined), which Potency is on record?
Answer: inactive

Question: With CCOc1ccccc1NC(=O)CSc1nc2ccccc2c2nc(CCn3cncc3C)nn12 as the compound, how does the Potency read?
Answer: active: 23.1 µM

Question: Which Potency does the source give for O=C(Nc1ccc(-c2noc(-c3cccs3)n2)cc1)c1cccnc1 here?
Answer: active: 29.1 µM

Question: For O=C(c1cc(C2CCCCN2C(=O)CCCc2ccccc2)on1)N1CCOCC1 (centres undefined), which Potency is on record?
Answer: inconclusive [inhibitor, partial curve]

Question: Which Potency does the source give for COc1ccc(S(=O)(=O)Nc2ccc(-c3ccc4nnc(C)n4n3)cc2)c(OC)c1 here?
Answer: inconclusive [inhibitor, single point]

Question: With Cc1ccc(N2CCN(c3nc4ccc(C)cc4n4nnnc34)CC2)c(C)c1 as the compound, how does the Potency read?
Answer: inconclusive [inhibitor, single point]

Question: For COC(=O)c1cnc(Nc2nc(C(N)Cc3ccccc3)cs2)nc1C(F)(F)F (centres undefined), which Potency is on record?
Answer: active: 20.6 µM

Question: For Cc1nonc1NC(=O)Nc1cccnc1, which Potency is on record?
Answer: inconclusive [inhibitor, partial curve, poor fit]

Question: Which Potency does the source give for O=C(Cn1ccc2ccccc2c1=O)NCCC(=O)Nc1cccc(Cl)c1 here?
Answer: inactive

Question: Which Potency does the source give for COc1cc2c(-c3ccccc3C)nc3c(c(C)nn3-c3ccccc3)c2cc1OC here?
Answer: inconclusive [inhibitor, single point]

Question: For CN1CCN(c2ccc(NC(=O)c3ccc(-c4ccc(Cl)cc4)o3)cc2)CC1, which Potency is on record?
Answer: active: 20.6 µM

Question: For CCOc1ccc(/C=C2\SC(=S)N(C)C2=O)cc1OC, which Potency is on record?
Answer: inactive

Question: With O=C(Cn1c(=O)n(Cc2ccco2)c(=O)c2cccnc21)Nc1ccccc1F as the compound, how does the Potency read?
Answer: inconclusive [inhibitor, partial curve, poor fit]

Question: With COc1ccc(NS(=O)(=O)c2cc(NC(=O)Cc3n[nH]c(=O)c4ccccc34)ccc2OC)cc1 as the compound, how does the Potency read?
Answer: inactive

Question: With CCOC(=O)c1sc(NC(=O)c2c(C)nn(Cc3ccccc3)c2C)cc1C as the compound, how does the Potency read?
Answer: inconclusive [inhibitor, single point]

Question: Which Potency does the source give for CCCN(CCC)C(=O)Cn1c(=O)n(-c2cccc(C(F)(F)F)c2)c(=O)c2c(C)c(C)sc21 here?
Answer: active: 20.6 µM

Question: With O=c1[nH]c2ccccc2nc1C(F)(F)F as the compound, how does the Potency read?
Answer: inactive

Question: With O=c1[nH]n2c(C(F)(F)F)cc(C3CC3)nc2c1N=Nc1ccccc1 as the compound, how does the activity change, negative = growth inhibition read?
Answer: inconclusive: -30.4% [inhibitor]

Question: Which Potency does the source give for CCc1ccc(NC(=O)CC2C(=O)N(c3cccc(C)c3)C(=O)N2Cc2cccs2)cc1 (centres undefined) here?
Answer: active: 20.6 µM

Question: For Cc1ccc(OCC(=O)Nc2c(C(=O)c3ccccc3)oc3ccccc23)cc1C, which Potency is on record?
Answer: inactive

Question: With CCOC(=O)c1ccc(NC(=O)C2CCCN(S(=O)(=O)c3cnc[nH]3)C2)cc1 (centres undefined) as the compound, how does the Potency read?
Answer: inactive

Question: Which Potency does the source give for COc1ccc(-c2nc3c(Cl)cc(C(F)(F)F)cn3c2Cc2ccc(C)cc2)cc1OC here?
Answer: inconclusive [inhibitor, single point]

Question: Which Potency does the source give for CCOC(=O)c1cc(CC)sc1NC(=O)c1cc(OCC)c(OCC)c(OCC)c1 here?
Answer: inconclusive [inhibitor, single point]

Question: For CCOC(=O)N/N=C(\C)c1ccc(-n2cnnn2)cc1, which Potency is on record?
Answer: inactive

Question: With Cc1cc(=O)c2cc(C(=O)c3ccccc3)ccc2[nH]1 as the compound, how does the Potency read?
Answer: inconclusive [inhibitor, partial curve, poor fit]

Question: For CCOC(=O)c1cccc(NC(=O)C2CCCN(S(=O)(=O)c3cnc[nH]3)C2)c1 (centres undefined), which Potency is on record?
Answer: inactive

Question: Which Potency does the source give for CCCOc1ccc(C(=O)NC(=S)NNC(=O)c2c(-c3ccccc3)noc2C)cc1 here?
Answer: inconclusive [inhibitor, single point]

Question: Which Potency does the source give for CCC/C=C/c1ccc(CN2C(C(C)C)C(=O)N(Cc3cn(CCC4OCCO4)nn3)CCS2(=O)=O)cc1 (centres undefined) here?
Answer: active: 13 µM

Question: With COC(=O)[C@]1(C)CCC[C@]2(C)c3ccc(C(C)C)cc3C(=O)CC12 (some centres undefined) as the compound, how does the Potency read?
Answer: active: 23.1 µM

Question: Which Potency does the source give for COc1ccc(C(CC(=O)O)NC(=O)COc2cc(C)ccc2C)cc1OC (centres undefined) here?
Answer: inactive

Question: For CCCCCc1cc(=O)oc2c(C(CCN3CCCC(C)C3)c3ccc(OC)cc3)c(OC)cc(OC)c12 (centres undefined), which Potency is on record?
Answer: active: 23.1 µM

Question: For Brc1ccc(-c2nc(-c3ccccc3)no2)o1, which Potency is on record?
Answer: inactive

Question: With O=C(COC(=O)c1ccc(Br)o1)Nc1cccc(S(=O)(=O)N2CCCCCC2)c1 as the compound, how does the Potency read?
Answer: inactive

Question: For Cc1cc(/C=C2\SC(N)=NC2=O)c(C)n1-c1ccc(F)cc1, which Potency is on record?
Answer: inconclusive [inhibitor, partial curve]

Question: Which Potency does the source give for Cc1cc(C)c(C#N)c(SCc2ccc3c(c2)OCO3)n1 here?
Answer: inactive

Question: For CCCCn1c(=O)n(-c2ccc(Br)cc2F)c(=O)c2c3c(sc21)CN(C(C)=O)CC3, which Potency is on record?
Answer: inconclusive [inhibitor, single point]

Question: Which Potency does the source give for COc1cc(CN2CCC(n3nccc3NC(=O)C3CCOC3)CC2)ccc1F (centres undefined) here?
Answer: inactive

Question: With Cn1c(Cl)c(/C=N/OC(=O)c2ccc(Cl)cc2)c2ccccc21 as the compound, how does the Potency read?
Answer: inconclusive [inhibitor, single point]

Question: With O=C1NC(c2ccc(-c3ccccc3[N+](=O)[O-])o2)C(C(=O)c2ccc(F)cc2)C(O)(C(F)(F)F)N1 (centres undefined) as the compound, how does the Potency read?
Answer: inconclusive [inhibitor, single point]

Question: With O=C(CCl)Nc1ccc(S(=O)(=O)Nc2nccs2)cc1 as the compound, how does the Potency read?
Answer: inconclusive [inhibitor, single point]

Question: With C/C(=C\C(=O)c1ccc(Br)cc1)NCc1ccc2c(c1)OCO2 as the compound, how does the Potency read?
Answer: inconclusive [inhibitor, single point]

Question: For CCCOc1ccc(N2C(=O)CC(N(C(=O)c3ccco3)c3ccc(OCCC)cc3)C2=O)cc1 (centres undefined), which Potency is on record?
Answer: inconclusive [inhibitor, single point]

Question: With Cn1nc(C(=O)OCC(=O)Nc2ccc(SC(F)F)cc2)c2ccccc2c1=O as the compound, how does the Potency read?
Answer: inactive

Question: With CCOC(=O)c1c(-c2ccccc2)[nH]c2ccc(O)cc12 as the compound, how does the activity change, negative = growth inhibition read?
Answer: inconclusive: -31.2% [inhibitor]

Question: With CCOC(=O)c1ccc(NC(=S)N(CCN(C)C)Cc2cccs2)cc1 as the compound, how does the Potency read?
Answer: inconclusive [inhibitor, single point]

Question: For COc1cc([N+](=O)[O-])ccc1NC(=O)NNC(=O)C(C)Oc1ccc(F)cc1F (centres undefined), which Potency is on record?
Answer: inconclusive [inhibitor, full curve, poor fit]

Question: Which Potency does the source give for COc1ccc(CCNC(=O)CSc2nnc(-c3ccccc3)o2)cc1OC here?
Answer: inactive

Question: For CC(C)[C@H](NC(=O)c1cccc(S(=O)(=O)N2CCOCC2)c1)C(=O)NCc1ccc(F)cc1, which Potency is on record?
Answer: inconclusive [inhibitor, single point]

Question: With O=C(N=C1c2ccccc2CN1c1ccccc1)c1cccc([N+](=O)[O-])c1 as the compound, how does the Potency read?
Answer: active: 11.6 µM

Question: Which Potency does the source give for Cc1csc2nc(COC(=O)c3ccc(NC(=O)COc4ccccc4F)cc3)cc(=O)n12 here?
Answer: active: 18.4 µM

Question: Which Potency does the source give for O=C(N/N=C\c1ccc(F)cc1)c1ccc(Cn2cc(Br)c([N+](=O)[O-])n2)o1 here?
Answer: inconclusive [inhibitor, single point]

Question: Which Potency does the source give for O=C(NCc1ccccc1Cl)C1CCC(=O)N(CC2CCCCC2)C1 (centres undefined) here?
Answer: inactive

Question: With C/C(=N\NC(=O)c1cc2ccccc2cc1O)c1cccs1 as the compound, how does the Potency read?
Answer: active: 13 µM

Question: For COc1ccc(OCCCC(=O)Nc2cccc([N+](=O)[O-])c2)cc1, which Potency is on record?
Answer: inconclusive [inhibitor, single point]

Question: For COC(=O)/C=C1/N/C(=N\c2nc(C)cc(C)n2)N(c2cccc(C)c2)C1=O, which Potency is on record?
Answer: inconclusive [inhibitor, single point]

Question: Which Potency does the source give for CSc1nc2ccccc2n1Cc1cccc([N+](=O)[O-])c1 here?
Answer: inconclusive [inhibitor, single point]

Question: With COc1cc(CNCc2ccccn2)ccc1OCc1c(Cl)cccc1Cl as the compound, how does the Potency read?
Answer: inconclusive [inhibitor, single point]

Question: For CCCCC(=O)N1C/C=C\C(c2ccc(OC)cc2)N(Cc2ccc(F)cc2)C(=O)C1 (centres undefined), which Potency is on record?
Answer: inconclusive [inhibitor, partial curve, poor fit]

Question: Which Potency does the source give for CCCCCCOc1ccc(OC(=O)c2cccnc2)cc1 here?
Answer: active: 13 µM

Question: With COc1ccc(OC)c2[nH]c(=O)c(CCNC(=O)C(=O)c3c(C)[nH]c4ccccc34)cc12 as the compound, how does the Potency read?
Answer: inconclusive [inhibitor, single point]
